Assay results: PMC5847570 (2018)

Target: Φ11DUT
Experiment: ITC

B1: Staphylococcal repressor protein Stl_(SaPIBov1) (natural protein)
chain: not shown
For B1, which Kd is on record?
The Kd was 100 nM.
